# According to PubChem BioAssay AID1996:
# Conditions: buffer; pH 7.4; 200.0 µM
row,Compound,solubility kinetic [µg/mL]
1,CCCCn1c(N)c(N(C)C(=O)c2cc3c(F)cccc3s2)c(=O)[nH]c1=O,5.8
2,COc1ccc(C(=O)N2CCN(c3ncccn3)CC2)cc1,> 44.8
3,CCOC(=O)Nc1ccc(Cc2ccncc2)cc1,> 38.4
4,Nc1nc2ccc(OC(F)(F)F)cc2s1,22.1
5,Cc1ccccc1NC(=O)c1ccc2c(c1)C(=O)N(CC(C)C)C2=O,< 0.4
6,Cc1ccc(CC2CC(=O)N(c3ncccn3)C2=O)cc1 (stereo unspecified),> 42.2
7,O=C(NC1CCCCC1)N1CCN(c2ccccc2Cl)CC1,45.5
8,Fc1ccc(-c2cn3ccccc3n2)cc1,29.9
9,COc1cc(CN2CCc3ccccc3C2)ccc1O,27.8
10,COc1cc(CN=C(C)c2c(O)n(C)c(=O)n(C)c2=O)cc(OC)c1,2
11,CC(=O)Nc1nc(CCN2C(=O)c3ccccc3C2=O)cs1,> 47.3
12,COc1ccccc1C(=O)Nc1ccc2ccccc2c1,3.2
13,COc1ccc(Cl)cc1NC(=O)C[n+]1cccc(C)c1.[Cl-],> 49.1
14,Cl.NCCOc1ccc(C2CCCCC2)cc1,30.5
15,COc1ccc(OC)c(S(=O)(=O)NC(C)CCc2ccccc2)c1 (stereo unspecified),26.4
16,CN1CCN(NC(=O)/C=C/c2cccc([N+](=O)[O-])c2)CC1,> 43.5
